Consider 34 variants from the RNAGym collection of RNA variant scans (doi:10.1093/nar/gkz1192).

B1: CPEB3 Ribozyme (parent)
chain: UAACAGGGGGCCACAGCAGAAGCGUUCACGUCGCAGCCCCUGUCAGAUUCUGGUGAAUCUGCGAAUUCUGCUGUAUAUCUC

Read counts are not given, so values of variants with three or more changes are uncertain.

Variants of B1 are the subject of the data set. Put plainly: self-cleavage, relative activity (ratio to wild type); higher = more cleavage; in vitro, sequencing. The essentials: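 Libraries of CPEB3 self-cleaving ribozyme mutants came from rounds of error-prone PCR and carried barcodes, which DNA sequencing matched to variants. In vitro transcription used T7 RNA polymerase at 37°C for 5 hours, with a further 15 min in DNase I before EDTA stopped the reaction; the ribozymes cleaved during both steps. The RNA was reverse transcribed with template switching and sequenced on Illumina. Relative activity is the cleaved/total read fraction of a variant divided by that of the unmutated ribozyme, averaged over three batches with at least 5 reads.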
Regarding UAACAGGGGGCCACAGCGGAAGCGUUCACGUCGCAGCCCCUGUCAGAUUCUGGUGAAUCUGCGAGUUCAGCCGUAUAUCUC [A18G A65G U69A U72C], the self-cleavage came to 0.2.
To UAACAGGGGGCCACAGCGGAAGCGUUCACGUCGCAGCCCCUGUCUGAUUCUGGCGAAUCUGCGAAUCCUGCUGUAUAACUC [A18G A45U U54C U67C U78A] belongs 0.25; to UAACAGGGGGCCACAGCGGAAGCGUUCACGUUGCAGCCCCUGUCGGAUUCUGGUGAGUCUGCGAACUCUGCUGUAUAUCUC [A18G C32U A45G A57G U66C], 0.06; to UAACAGGGGGCCACAGCGGAAGCGUUCACGUCGCAGCCCCUGUCAGGCUCUGGUGAGUCUGCGAAUUCUGCUGUAAAUCUC [A18G A47G U48C A57G U76A], 0.94.
As to UAACAGGGGGCCACAGCGGAAGCGUUCACGUCGCAGCCCCUGUCAGGUUCAGGUGAAUCUGCGAAUUCUACUGUAUAUCGC [A18G A47G U51A G70A U80G], the self-cleavage worked out at 0.23.
As to UAACAGGGGGCCACAGCGGAAGCGUUCACGUCGCAGCCCCUGUCAGAUUCUGGUGGAUCUGCGAAUCCUGCUGAAUAUCUC [A18G A56G U67C U74A], the self-cleavage worked out at 0.18.
For the variant UAACAGGGGGCCACAGCGGAAGCGUUCACGUCGCAGCCCCUGUCAGAUUCUGGUGAGACUGCGAUUUCUGCUGUGUACCUC [A18G A57G U58A A65U A75G U78C], the self-cleavage was determined as 0.13.
For the variant UAACAGGGGGCCACAGCGGAAGCGUUCACGUCGCAGCCCCUGUCAGAUUCUGGUGAUUCCGCGAAUUCUGCUGUAUAUCUC [A18G A57U U60C], the self-cleavage came to 0.18.
The result for UAACAGGGGGCCACAGCGGAAGCGUUCACGUCGCAGCCCCUGUCAGAUUCUGGUGAAUCUGCGGACUAUGCUGUAUAUCUC [A18G A64G U66C C68A] reads 0.22.
UAACAGGGGGCCACAGCGGAAGCGUUCACGUCGCAGCCCCUGUCAGUUCCUGGUGAACCUGCGAAUCCUGCUGUAUAUCUC [A18G A47U U49C U58C U67C]: the self-cleavage turned out to be 0.08.
Regarding UAACAGGGGGCCACAGCGGAAGCGUUCACGUCGCAGCCCCUGUCAGAUUCUGGUGAAUCUGCGAAUUCUGCUGUAUGCCUC [A18G A77G U78C], the self-cleavage came to 0.45.
Turning to UAACAGGGGGCCACAGCGGAAGCGUUCACGUCGCAGCCCCUGUCAGAUUCUGGUGAAUCUGCGAAUUCUGCUGUAUUCCUC [A18G A77U U78C], the self-cleavage is 0.81.
With UAACAGGGGGCCACAGCGGAAGCGUUCACGUCGCAGCCCCUGUCAGAUUCUGGUGAAUCUGCGAAUUCUGCUGUAUUACUC [A18G A77U U78A], the self-cleavage turned out to be 0.8.
Regarding UAACAGGGGGCCACAGCGGAAGCGUUCACGUCGCAGCCCCUGUCAGAUUCUGGUGAGUCCGCGGAUUCUGCUGUAUAUCUC [A18G A57G U60C A64G], the self-cleavage came to 0.2.
To UAACAGGGGGCCACAGCGGAAGCGUUCACGUCGCAGCCCCUGUCAGUUUCUGGUGAAUCAGCGAAAUCUGCUGUAUAUCUC [A18G A47U U60A U66A] belongs 0.22; to UAACAGGGGGCCACAGCGGAAGCGUUCACGUCGCAGCCCCUGUCGGAUUCUGGUGAAUCGGCGAAUUCUGCUGUAUAUCUC [A18G A45G U60G], 0.32.
Turning to UAACAGGGGGCCACAGCGGAAGUGUACACGGCGCAGCCCCUGUCAGACCCUGGUGAAUCUGCGAAUUCUGCUGUAUAUCUC [A18G C23U U26A U31G U48C U49C], the self-cleavage amounted to 0.06.
With UAACAGGGGGCCACAGCGGAAGCGUUCACGUCGCAGCCCCUGUCAGGUUCUGGUGGAUCUGCGAAUUCUGCUGUAUAUCUC [A18G A47G A56G], the self-cleavage stood at 0.42.
On to UAACAGGGGGCCACAGCGGAAGCGUUCACGUUGCAGCCCCUGUCAGAUCCAGGUGAAUCUGCGAAUUCAGCUGUAUAUCUC [A18G C32U U49C U51A U69A], for which the self-cleavage is 0.06.
As for UAACAGGGGGCCACAGCGGAAGCGUUCAUGUCGCAGCCCCUGUCAGAUUCUGGUGUAUCUGCGAGUUCUGCUGUAUAUCUC [A18G C29U A56U A65G], the self-cleavage was found to be 0.31.
UAACAGGGGGCCACAGCGGAAGCGUUCACGUCGCAGCCCCUGUCAGAUUCUGGUGAGUCUGCGAAUGCUGCUGUAUAUCUC [A18G A57G U67G]: the self-cleavage came out at 0.09.
To UAACAGGGGGCCACAGCGGAAGCGUUCACGUCGCAGCCCCUGUCAGAUUCUGGUGAGUCUGCGAAUCCUGCUGUAUAUCUC [A18G A57G U67C] belongs 0.18; to UAACAGGGGGCCACAGCGGAAGCGUUCACGUUGCAGCCCCUGUCAGAUUCAGGUGAAUCUGCGAAUUCUGCUGUAUAUCUC [A18G C32U U51A], 0.09.
In the case of UAACAGGGGGCCACAGCGGAAGCGUUCACGUCGCAGCCCCUGUCAGAUUCUGGUGGAUCUGAGAAUACUGCUGUAUAACUC [A18G A56G C62A U67A U78A], the self-cleavage is 0.07.
With UAACAGGGGGCCACAGCGGAAGCGUUCACGUUGCGGCCCCUGUCUGAUUCUGGUGAAUCUGCGAAUUCUGCUGUAUAUCUC [A18G C32U A35G A45U], the self-cleavage turned out to be 0.12.
As for UAACAGGGGGCCACAGCGGAAGCGUUAGCGUCGCGGCCCCUGUCAGAUUCUGGUGAAUCUGCGAAUUCUGCUGUAUAUCUC [A18G C27A A28G A35G], the self-cleavage was determined as 0.21.
The result for UAACAGGGGGCCACAGCGGAAGCGUUCACGUCGCAGCCCCUGUCAGAUUCUGGUGGAUCUGCGAACUCUGCUGUAUAUCUC [A18G A56G U66C] reads 0.16; that for UAACAGGGGGCCACAGCGGAAGCGUUCACGUCGCAGCCCCUGUCUGAUUCUGGUGAAUCUGCGUAUUCUGCUGUAUAUCUC [A18G A45U A64U], 0.18.
With UAACAGGGGGCCACAGCGGAAGCGUUCACGUCGCAGCCCCUGUCAGAUUCUGGUGAAUCUGCGGGUUCUGCUGUAUGUCUC [A18G A64G A65G A77G], the self-cleavage came to 0.14.
To UAACAGGGGGCCACAGCGGAAGCGUUCACGUAGCAGCCCCUGUCAGAUUCUGGUGAAUCUGUGAAUUCUGCUGUAUAUCUC [A18G C32A C62U] belongs 0.07.
The result for UAACAGGGGGCCACAGCGGAAGUGUUCACGUCGCAGCCCCUGUCAGGUUCUGGUGAAUCUGCGAAUUCUGCUGUAUAUCUC [A18G C23U A47G] reads 0.25.
Take UAACAGGGGGCCACAGCGGAAGCGUUCACGUCGCAGCCCCUGUCUGAUUCAGGUGUAUCUGCGAAUUCUGCUGUAUAUCUC [A18G A45U U51A A56U]: the self-cleavage worked out at 0.16.
With UAACAGGGGGCCACAGCGGAAGCGUUCACGUCGCAGCCCCUGUCAGAUUCUGGUGGAUCUGCGAAUUCUGCAGUAUACCUC [A18G A56G U72A U78C], the self-cleavage is 0.14.
Regarding UAACAGGGGGCCACAGCGGAAGAGUUCACGUCGCAGCCCCUAUCAGAUUCUGGUGAAUCUGCGAAUUCUGCUGCGUAUCUC [A18G C23A G42A U74C A75G], the self-cleavage turned out to be 0.06.
